About 1,200 (2.5%) of roughly 48,000 compounds were called active. Not shown: some 2% with an inconclusive outcome.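 Rule for the calls: active = activation of at least 60% and not above a set upper limit (about 1 call in 100 departs from these limits); inconclusive = activation of 40% to 60%, or above that upper limit; inactive = activation under 40%.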 The list shows a part of the results.
molecular target: Probable G-protein coupled receptor 32 (Homo sapiens) (UniProt O75388); test: qHTS for Agonists of Human Resolvin D1 Receptor DRV1; conditions: CHO-K1 GPR32 beta-arrestin PathHunter luminescence, 90 min; at 76.9 µM; hits give high values; zero percent set by DMSO-only wells; note: 0% is about no effect
Sequence of UniProt O75388 (O75388 whole entry, looked up): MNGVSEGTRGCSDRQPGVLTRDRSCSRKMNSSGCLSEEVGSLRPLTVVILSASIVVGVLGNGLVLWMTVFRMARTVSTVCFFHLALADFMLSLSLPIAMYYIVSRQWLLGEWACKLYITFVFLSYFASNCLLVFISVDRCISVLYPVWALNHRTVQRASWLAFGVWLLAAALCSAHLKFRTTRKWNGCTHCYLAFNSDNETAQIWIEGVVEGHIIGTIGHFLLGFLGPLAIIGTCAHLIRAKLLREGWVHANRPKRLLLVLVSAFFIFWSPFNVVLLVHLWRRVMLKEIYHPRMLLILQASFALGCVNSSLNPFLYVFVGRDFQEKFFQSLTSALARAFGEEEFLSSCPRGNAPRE
Method in brief: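 Cells are plated overnight, treated with compounds in DMSO for 90 minutes at 37 °C, and developed with PathHunter detection reagent for 1 hour before luminescence is read; signal reflects beta-arrestin binding to GPR32 in engineered CHO-K1 cells.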

SMILES | activation
Cc1cccc(S(=O)(=O)Nc2cccc(-c3ccc(N4CCCCC4)nn3)c2)c1 | inactive: -24.3%
CCc1nnc2c(N3CCN(c4cccc(C)c4)C(C)C3)nc3ccccc3n12 (stereo not given) | inactive: -19.2%
CCOc1ccc(CCNC(=O)C2CCCN(S(=O)(=O)N(C)c3ccc(F)cc3)C2)cc1 (stereo not given) | inactive: 4.06%
CCS(=O)(=O)N1CCc2cc(C(=O)NCc3ccccc3OC)ccc21 | inactive: 2.72%
COc1cccc(NC(=O)C2CCN(c3ccc(Sc4ccc(C)cc4)nn3)CC2)c1 | inactive: 10.7%
COc1ccc(NC(=O)CN2C(=O)COc3ccc(S(=O)(=O)N4CCOCC4)cc32)cc1 | inactive: -11.1%
O=C(NCc1ccccc1)C(=O)Nc1c2c(nn1-c1ccc(F)cc1)CSC2 | inactive: -24.2%
Cc1ccccc1-c1nc2scc(CCNC(=O)c3ccco3)n2n1 | inactive: 6.72%
CCn1cc(CNC(=O)c2cc(-c3ccc(C)cc3)nc3ccc(Br)cc23)c(C)n1 | inactive: -3.5%
COc1cccc(NC(=O)C2CCC(CNS(=O)(=O)c3ccc4c(c3)CCCC(=O)N4)CC2)c1 (stereo not given) | inactive: -10.7%
CCc1ccc2oc(-c3ccc(C)c(NC(=O)/C=C/c4ccco4)c3)nc2c1 | inactive: 5.9%
O=C(CSc1nc(=O)n(Cc2ccco2)c2c1CCC2)NCc1ccccc1 | inactive: -36.9%
Clc1ccccc1OCCSc1nnc(-c2cccs2)o1 | inactive: 14.2%
Cc1ccc2nc(/C(C#N)=C/c3ccccc3F)[nH]c2c1 | inactive: -4.89%
Cc1cccc(OCCSc2nnc(-c3cccs3)o2)c1 | inactive: 14.4%
Cc1sc2ncn(CC(=O)N3CCN(c4ccccc4F)CC3)c(=O)c2c1S(=O)(=O)N1CCC(C)CC1 | inactive: -15.4%
O=C(NC1CCCC1)c1ccc2c(=O)n(Cc3ccccc3)c(SCc3ccccc3F)nc2c1 | inactive: -5.54%
COc1ccc(Cl)cc1-n1cc(-c2ccccc2)nc1SCC(=O)Nc1ccc(C)cc1 | inactive: -18.1%
COc1ccccc1CNC(=O)C1CCN(c2nc3ccc(C)cc3[nH]2)CC1 | inactive: -13.7%
CCOc1ccc(CCNC(=O)c2cc3c(-c4ccccc4F)nn(C)c3s2)cc1 | inactive: -4.49%
CCc1ccc(CNC(=O)CCCn2ccc3cc(S(=O)(=O)N4CCCC4)ccc32)cc1 | inactive: -14.5%
Cc1ccc(S(=O)(=O)c2nc(-c3ccc(F)cc3)oc2SCC(=O)NC2CCCCC2)cc1 | inactive: 0.982%

SMILES | activation
COc1ccc(-c2cc(-c3ccc(C)cc3)nc3c2COc2ccccc2-3)cc1 | inactive: -6.2%
CCC(Cn1nnc2ccccc2c1=O)NC(=O)Nc1ccccc1OC (stereo not given) | inactive: 9.71%
COC(=O)c1ccccc1NC(=O)Cn1cnc2sc(C)c(S(=O)(=O)N3CCC(C)CC3)c2c1=O | inactive: -9.1%
COc1cccc(Nc2nc3cc(C)ccc3nc2NS(=O)(=O)c2ccc(Cl)cc2)c1 | inactive: 29.1%
CCOc1ccc(C2C(=O)N(C3CCCCCC3)CC(=O)N2Cc2ccccc2)cc1OC (stereo not given) | inactive: -18.5%
COc1ccc(NC(=O)/C=C\C(=O)N(c2ccc(C(C)C)cc2)C(C(=O)NCc2ccco2)c2ccc(C)cc2)cc1 (stereo not given) | inactive: -24.6%
Cc1nc2ccccn2c(=O)c1NC(=O)c1cccc(F)c1 | inactive: -3.11%
NC(=Nc1ccccc1)NC(=O)c1nc(Cl)c(N)nc1N | inactive: 1.38%
CCOC(=O)c1cccc(NC(=O)c2ncoc2-c2ccco2)c1 | inactive: -6.18%
Cc1ccc(NC(=O)C2(C)Cc3ccccc3C(=O)O2)c(C)c1 (stereo not given) | inactive: 47.3%
Cc1ccccc1N(C)S(=O)(=O)c1nnc(NC(=O)c2ccco2)s1 | inactive: 1.42%
CCOC(=O)c1cc(-c2ccc(OC)cc2)n(CCC(=O)NCCc2ccccc2)c1C | inactive: -25.9%
COc1cccc(C(=O)NCCc2csc3nc(-c4ccccc4F)nn23)c1OC | active: 68.4%
COc1ccc(CCNC(=O)c2ccc3c(c2)sc2nc(-c4ccccc4)cn23)cc1OC | inactive: -11.6%
Cc1cc(OCC(=O)NCCc2nc3ccccc3[nH]2)cc(C)c1Cl | inactive: -16%
O=S(=O)(c1ccccc1)c1nc(-c2ccccc2Cl)oc1N1CCCCCC1 | inactive: -24%
Cc1cc(C)c(S(=O)(=O)NCCS(=O)(=O)N2CCN(c3ccccc3)CC2)c(C)c1 | inactive: -41.7%
Cc1ccc(S(=O)(=O)C(CNC(=O)c2c(F)cccc2F)c2ccco2)cc1 (stereo not given) | inactive: 4.03%
Cc1cccc(C(=O)N2CCc3cc(CNC(=O)c4cc5ccccc5[nH]4)ccc32)c1 | inactive: -6.25%
CCn1nc(C)c(CCN(C)C(=O)Nc2cccc(Cl)c2C)c1C | inactive: 11.7%
Cc1ccc(CNC(=O)C(C)n2c(=O)cc(C(F)(F)F)c3c(C)nn(C)c32)cc1 (stereo not given) | inactive: -3.02%
COc1ccc(CNC(=O)Cc2c(C(=O)O)c(C)cn2C)cc1 | inactive: 1.63%

SMILES | activation
COc1ccc(-c2nc3scc(CCNS(=O)(=O)c4ccc5c(c4)OCCO5)n3n2)cc1OC | inactive: -11.4%
O=C(NCc1ccc(F)cc1Cl)c1cc(=O)[nH]c2ccc(S(=O)(=O)N3CCCCC3)cc12 | inactive: -13.6%
Cc1ncc([N+](=O)[O-])n1CC(C)O (stereo not given) | inactive: -0.393%
CCOc1ccc(C(=O)Nc2c(C(=O)Nc3ccccc3OC)oc3ccccc23)cc1OCC | inactive: 6.44%
Cc1cc(C)cc(OCCSc2nc3ccc(NC(=O)c4cccs4)cc3s2)c1 | inactive: -9.01%
Cc1c(-c2ccccc2)c(=O)oc2ccc(OC(=O)N3CCOCC3)cc12 | inactive: -12.6%
C/C=C(/C(=C/C)c1ccc(O)cc1)c1ccc(O)cc1 | inactive: 41.3%
O=C(Cn1cc(C(=O)C2CCCCC2)c2ccccc21)Nc1ccccc1Cl | inactive: 3.23%
COc1ccc2c(C)c(CC(=O)NCCc3ccc(Cl)cc3)c(=O)oc2c1C | inactive: -6.74%
CCOc1ccc(NC(=O)CSC2=Nc3ccccc3C3=NC(CC(=O)NCc4cccs4)C(=O)N23)cc1 (stereo not given) | inactive: -23.3%
COc1cc(-c2cc(OC)c3c(C)oc(C)c3c(=O)c2)ccc1OC(=O)c1ccc(C)cc1 | inactive: -29.1%
O=C(CSc1n[nH]c(-c2ccccc2Cl)n1)NCCCc1ccccc1 | inactive: 6.99%
OC1(c2ccc(Cl)cc2)CCN(Cc2c[nH]c3ccccc23)CC1 | inactive: 7.23%
CC(CCc1ccccc1)NC(=O)Cn1c(=O)nc(-c2ccccc2)c2cc(Cl)ccc21 (stereo not given) | inactive: -16.3%
CCc1ccc2oc(C(=O)N(Cc3ccc(N(C)C)cc3)Cc3ccco3)c(C)c2c1 | inactive: -48%
CC1=C(c2ccc(C)c(C)c2)S(=O)(=O)N=C1N1CCC(C(=O)NC(C)c2ccccc2)CC1 (stereo not given) | inactive: -12.3%
CCCN(CCC)C(=O)c1cc2c(=O)n3cccc(C)c3nc2s1 | inactive: 3.73%
Cc1ccc(-c2cn3c(n2)sc2cc(C(=O)NCCCN4CCCCCC4)ccc23)cc1 | inactive: 6.44%
CC(=O)c1cccc(NC(=O)C2CCN(c3ncnc4c3nc3n4CCCCC3)CC2)c1 | inactive: 14.1%
O=C1c2ccccc2-c2onc3c(N4CCN(C5CCCCC5)CC4)cc(NCCO)c1c23 | inactive: -13%
O=C(O)c1ccccc1OP(=O)(O)O | inactive: -1.01%
COc1ccc(CCNC(=O)c2ccc3c(c2)CCN3S(C)(=O)=O)cc1OC | inactive: 14.7%

SMILES | activation
COc1ccc2c(CNCCc3ccc(SC)cc3)c(C(=O)O)n(Cc3ccc(F)cc3)c2c1 | active: 115%
COc1ccc2c(c1)c(=O)c(C(=O)c1ccccc1)cn2CC(=O)Nc1ccc2c(c1)OCO2 | inactive: -3.2%
COc1ccc(Cn2cc(S(=O)(=O)c3ccc(C)cc3)c(=O)c3cc(F)ccc32)cc1 | inactive: -14.3%
Cc1nc(-c2ccc(S(=O)(=O)Nc3cc(Cl)ccc3C)cc2)co1 | active: 82.3%
O=c1c2ccccc2nc(/C=C/c2cccc3ccccc23)n1-c1ccc(F)cc1F | inactive: -22%
COc1ccccc1N1CCN(CCN(C(=O)c2ccc(I)cc2)c2ccccn2)CC1 | inactive: -4.28%
CCS(=O)(=O)c1ncc(Cl)c(C(=O)N2CCN(c3ccc(OC)cc3)CC2)n1 | inactive: -19.3%
CCOc1ccc(NC(=O)c2oc3ccccc3c2NC(=O)COc2cccc(OC)c2)cc1 | inactive: 11.1%
Cc1cccc(CN2C(=O)c3ccccc3Sc3ccc(C(=O)NCc4ccco4)cc32)c1 | inactive: -27.4%
CCC(Sc1nc2c(sc3ccccc32)c(=O)n1CCc1ccc(OC)c(OC)c1)C(=O)N(CC)CC (stereo not given) | inactive: -0.949%
CCC(CC)C(=O)Nc1nnc(S(=O)(=O)N2CCCCCC2)s1 | inactive: -9.19%
Cc1ccc(CNC(=O)CCc2cn(C)c3ccccc23)cc1 | inactive: -18.2%
NS(=O)(=O)c1ccc(CCNC(=O)C2CCN(c3ncnc4c3nc3n4CCCCC3)CC2)cc1 | inactive: 1.28%
COC(=O)c1ccc(Nc2ncnc3c2cnn3C)cc1 | inactive: -9.36%
CC1CCN(S(=O)(=O)N2CCC(C(=O)NCc3ccccc3Cl)CC2)CC1 | inactive: -9%
Cc1cn2c(=O)cc(COC(=O)c3ccc(NC(=O)c4ccc(F)cc4)cc3)nc2s1 | inactive: -21.9%
CCOC(=O)c1ccc(NC(=O)c2cnn3c(=O)c4c(n(CC)c23)CCN(Cc2ccc(OC)cc2)C4)cc1 | inactive: -15.7%
CCN(CC)c1ccc(NC(=O)c2cc(C)nc3c2c(C)nn3-c2ccc(C)cc2)c(C)c1 | inactive: -2.17%
CC(Sc1nccn1C)C(=O)Nc1ccccc1C#N (stereo not given) | inactive: -13.1%
